From the RNAGym collection of RNA variant scans (doi:10.7554/elife.90254) come the findings set out here.

The labels stand for the following.
B1: LINE1-mini (parent)
chain: GGCAGAGCUCAACACAGCGUGGCAAAGUGGCUGUGGCUAGACUGCC

The source gives no read counts; variants with many changes may rest on few reads.

The data set covers variants of B1. The data set is described as follows: self-cleavage, relative activity (ratio to wild type); higher = more cleavage; in vitro, sequencing; the parent is a self-cleaving ribozyme.
Consider A12U G30U C45U, for which the self-cleavage amounted to 0.08.
A12U G22A C42A: the self-cleavage was 0.15.
Regarding A12U C18A A25U, the self-cleavage was 0.37.
The same measure for C13A A16G G19C G33U G40U: 0.01.
The figure for A12U C23G G44U is 0.27; for C13A A14C G35A C42A it is 0.
For A12U C15A C18A, the self-cleavage came to 0.03.
Turning to C13A A24G A26C C37G C45G, the self-cleavage was determined as 0.03.
Turning to C13A C31G G35C, the self-cleavage stood at 0.03.
Take A12U A26U C31U G44U: the self-cleavage amounted to 0.01.
The figure for A12U C13U G22U G29C G30A U32G is 0.03.
In the case of A12U U20G A41C, the self-cleavage turned out to be 0.03.
Turning to A12U C13U U32A G36U G44U, the self-cleavage worked out at 0.03.
The figure for C13A C15U C23A U34G is 0.01; for A12U C13U U34C G44U C46G it is 0.28; for A12U U20A U28C it is 0.46.
On to A12U A25C G27U, for which the self-cleavage came to 0.05.
As to A12U G21U U38A A39G, the self-cleavage was 0.01.
The figure for C13A G17C A24U is 0.06; for C13A A26C G29C it is 0.07; for A12U C13A G17A C37A A39U U43A it is 0.02.
For A12U G33C C46A, the self-cleavage stood at 0.02.
On to A12U G33A G36U, for which the self-cleavage turned out to be 0.06.
The figure for A12U G17C U43A is 0.09; for A12U G17A A26U G44C C46U it is 0.02; for C13A C18G G21U G33U G44A it is 0.12.
Take C13A G17C G33C: the self-cleavage was 0.07.
The figure for C13A C18U G27U G36U U43G is 0.01; for C13A A14U G17A C18A G30U it is 0; for C13A A14C C18U it is 0.03.
The same measure for A12U G19A U20G A26U: 0.24; for A12U C13G G33U A41G: 0.05; for A12U C37A C45U: 0.37.
Regarding C13A C18A G36A, the self-cleavage came out at 0.03.
The same measure for C13A C18A G36U: 0.01.
For C13A C15U G40U, the self-cleavage was 0.3.
Turning to A12U C18A C31G G40U, the self-cleavage came out at 0.02.
The same measure for A12U G17U U20G: 0.07.
On to C13A G19U C23G A24C A25C C37G, for which the self-cleavage was found to be 0.02.
The same measure for A12U A25G G27A: 0.01; for C13A A26U A39C A41C: 0.07; for A12U C15G C23A C42U: 0.01.
The same measure for C13A A39G C42U: 0.11.
As to C13A C15A G35U A39G C45A, the self-cleavage was 0.05.
The figure for C13A C18U G30A G35C G36U is 0.07; for A12U A41U C45A it is 0.13; for A12U U32G G33A it is 0.01.
For C13A C15A G27U, the self-cleavage turned out to be 0.08.
Regarding A12U G17A C37A C46U, the self-cleavage was 0.
The figure for C13A A14C G22A is 0.07.
The figure for C13A A16U G21C G33A U34C C37G is 0.02.
C13A C18G U34A C42A: the self-cleavage came to 0.03.
The same measure for C13A A24G U28C G35A A39U: 0.11.
The figure for C13A C18U C23A A25C G33C is 0.03.
The figure for C13A A25C G30A U32G is 0.02; for A12U C23A C31U it is 0.07; for A12U G19U G22A U34C it is 0.08.
On to C13A G17C A25C, for which the self-cleavage was 0.02.
The figure for A12U G22C C31A is 0.06; for C13A A14U A25C G40U it is 0.02.
The same measure for A12U G19A G27U G40C A41C: 0.03; for A12U C13A U38G C42G: 0; for A12U G21U G30A: 0.5.
The figure for C13A A26C U34A G40U C45G is 0.01; for A12U U28C G33U it is 0.01.
Consider A12U G17U U32G, for which the self-cleavage came to 0.05.
The figure for C13A A26G A39G is 0.07; for C13A C15U C23U it is 0.17; for A12U C23G G35U it is 0.14.
The same measure for A12U U20G G22A A24G G29U: 0.26; for A12U A26U G33U: 0.02; for A12U U28A G29C C42G G44U: 0.02.
Consider A12U U20A C37U C45G, for which the self-cleavage amounted to 0.
As to A12U G29U G40A, the self-cleavage stood at 0.19.
The figure for C13A C15G G17U C18U G21A U38G is 0.04; for C13A G17A U32G it is 0.03; for C13A A26U G30C C31U A39G it is 0.19.
On to C13A G17U G29U, for which the self-cleavage is 0.34.
For the variant A12U G22C G27U, the self-cleavage turned out to be 0.13.
The same measure for A12U C15A U38C: 0.11; for A12U G27C A39U C42U: 0.11; for A12U A24C G29A: 0.19.
The figure for C13A A26U C45U is 0.06; for C13A A14G G27A C37A it is 0.04.
The same measure for A12U G21C G44A: 0.08; for C13A A16U U43G C46G: 0.07.
For the variant A12U G22C C45G, the self-cleavage was 0.09.
With A12U C13U C23U G33A U38G, the self-cleavage came out at 0.01.
The figure for C13A C23A G29A A39C is 0.01.
Take C13A G19C U32G: the self-cleavage came out at 0.01.
The figure for C13A A16C G19U is 0.08; for C13A G19A U20A it is 0.24.
As to A12U C31U G36U A39C, the self-cleavage came to 0.04.
A12U G35C A39C G44A: the self-cleavage stood at 0.01.
The same measure for A12U A25C G40A C46A: 0.03; for A12U G17U C31U C42U: 0.11.
The same measure for A12U U28G A39G U43C C45G: 0.06; for C13A C18U A26G: 0.03.
For the variant A12U C13A G21U, the self-cleavage was 0.04.
The figure for A12U G22A G35U is 0.14.
The same measure for C13A G17C A26G G27C U43C: 0.02; for A12U C13A U32A C45G C46A: 0.08.
The same measure for A12U A24U U38C A39C: 0.09.
As for A12U G21A A39C C46G, the self-cleavage is 0.1.
The figure for A12U A39C G40C C42U is 0.03; for A12U G33C U38G it is 0.
The same measure for C13A A25C A26G C37G G44C C45U: 0.01; for C13A C18G G19C A39C: 0.03; for A12U C13U G21U G29U: 0.06.
The same measure for C13A C31U C45U: 0.05; for C13A G17C A24U A26C G44A: 0.09.
Take C13A A14C U34A C42G: the self-cleavage was 0.1.
As to A12U G21C U38C, the self-cleavage stood at 0.31.
The same measure for C13A C23A C37A C42U: 0.27; for A12U C15A C18A G21U G36C C45G: 0.
For A12U C18A G40A, the self-cleavage was determined as 0.06.
The figure for C13A A14U C15U C18G C23U G29U C46G is 0.03.
The figure for A12U G35C G36C is 0.12.
The figure for C13A A14G U28G U32A is 0.04; for A12U C13A C23A G27A C31U it is 0.03.
As to A12U U20G C42U G44A, the self-cleavage came out at 0.07.
C13A C18U G21C G40A C42G: the self-cleavage came to 0.06.
As to A12U C15U U43C, the self-cleavage came out at 0.15.
The same measure for A12U G17A G36C G40C A41C C45U: 0.01; for C13A C23A G44A: 0.97; for C13A C15G G30C: 0.02.
As to A12U C15A A25U, the self-cleavage was 0.03.
The figure for A12U C23G A25G G29A G30U C42U is 0.01.
The figure for C13A G17C G27C is 0.08.
The same measure for A12U G19U G35C C46A: 0.06; for C13A C31U G33A: 0.
For A12U G29U G33A U34G U43C, the self-cleavage worked out at 0.01.
As for A12U G22U A25G, the self-cleavage was found to be 0.07.
The figure for A12U G17U G22C A39U is 0.38.
The figure for A12U G27U A39U is 0.01; for A12U U38A A41C it is 0.02.
The figure for A12U C31U G35U is 0.03; for A12U U20A G27A it is 0.92.
Take A12U C13U U32A: the self-cleavage came to 0.06.
The same measure for A12U G19C C23G G40A: 0.03; for A12U C15A A26U A39C: 0.01.
As to A12U C13A G21C A24G, the self-cleavage came to 0.05.
Turning to C13A C15G G27U C31U G35A C45G C46G, the self-cleavage worked out at 0.01.
Consider C13A A14G G30U, for which the self-cleavage was found to be 0.07.
The figure for A12U G19A G21U C23G G27A is 0.15; for A12U U20A U28G C42G it is 0.01.
The same measure for C13A A14U G21C: 0.16; for C13A A24G U34G U38A: 0.02.
The same measure for A12U C18U U20A: 0.12.
Take C13A C15U G17A U28C G29U G40U C46U: the self-cleavage stood at 0.19.
As to C13A A14C A16C G36U C37G U38G, the self-cleavage came out at 0.05.
The same measure for C13A G19C G22C U32C: 0.03; for A12U C18U C42A: 0.03; for A12U C18U U38C: 0.03.
The same measure for C13A A26G C31A U34C C37A: 0.08; for C13A A24C G33U G35U C45G: 0.
The figure for A12U G27A C42A is 0.04; for A12U G22A G27A U34C it is 0.55.
C13A A39U C46A: the self-cleavage was 0.07.
Take C13A A25C U32G: the self-cleavage amounted to 0.04.
For the variant C13A G17A G21C C23A, the self-cleavage was found to be 0.27.
The figure for A12U G21U C31A is 0.03; for A12U C13G C18A it is 0.08; for A12U C13G C18U it is 0.08.
The figure for A12U C18A C23U G30C G36U is 0.03; for A12U C31U G35C A39G it is 0.01.
The figure for C13A A14C A16G C23A U28G is 0.05.
